Test results from patent US10188647B2, “Combination therapy using P53 activator and c-Met inhibitor” (Samsung Electronics Co., Ltd., priority 2013, dated 2019).

What was measured:
Conditions in all cases: rank among the four antibodies selected in Reference Example 1.7
c-Met [1] = molecular target: T1, c-Met (Homo sapiens, UniProt P08581); assay: Affinity for c-Met of affinity-matured antibodies; assay type: binding
c-Met [2] = molecular target: T1, c-Met; assay: c-Met degradation degree of affinity-matured antibodies; assay type: cell-based
Akt phosphorylation = Akt phosphorylation degree of affinity-matured antibodies; assay type: cell-based

T1 sequence (P08581 25-1390): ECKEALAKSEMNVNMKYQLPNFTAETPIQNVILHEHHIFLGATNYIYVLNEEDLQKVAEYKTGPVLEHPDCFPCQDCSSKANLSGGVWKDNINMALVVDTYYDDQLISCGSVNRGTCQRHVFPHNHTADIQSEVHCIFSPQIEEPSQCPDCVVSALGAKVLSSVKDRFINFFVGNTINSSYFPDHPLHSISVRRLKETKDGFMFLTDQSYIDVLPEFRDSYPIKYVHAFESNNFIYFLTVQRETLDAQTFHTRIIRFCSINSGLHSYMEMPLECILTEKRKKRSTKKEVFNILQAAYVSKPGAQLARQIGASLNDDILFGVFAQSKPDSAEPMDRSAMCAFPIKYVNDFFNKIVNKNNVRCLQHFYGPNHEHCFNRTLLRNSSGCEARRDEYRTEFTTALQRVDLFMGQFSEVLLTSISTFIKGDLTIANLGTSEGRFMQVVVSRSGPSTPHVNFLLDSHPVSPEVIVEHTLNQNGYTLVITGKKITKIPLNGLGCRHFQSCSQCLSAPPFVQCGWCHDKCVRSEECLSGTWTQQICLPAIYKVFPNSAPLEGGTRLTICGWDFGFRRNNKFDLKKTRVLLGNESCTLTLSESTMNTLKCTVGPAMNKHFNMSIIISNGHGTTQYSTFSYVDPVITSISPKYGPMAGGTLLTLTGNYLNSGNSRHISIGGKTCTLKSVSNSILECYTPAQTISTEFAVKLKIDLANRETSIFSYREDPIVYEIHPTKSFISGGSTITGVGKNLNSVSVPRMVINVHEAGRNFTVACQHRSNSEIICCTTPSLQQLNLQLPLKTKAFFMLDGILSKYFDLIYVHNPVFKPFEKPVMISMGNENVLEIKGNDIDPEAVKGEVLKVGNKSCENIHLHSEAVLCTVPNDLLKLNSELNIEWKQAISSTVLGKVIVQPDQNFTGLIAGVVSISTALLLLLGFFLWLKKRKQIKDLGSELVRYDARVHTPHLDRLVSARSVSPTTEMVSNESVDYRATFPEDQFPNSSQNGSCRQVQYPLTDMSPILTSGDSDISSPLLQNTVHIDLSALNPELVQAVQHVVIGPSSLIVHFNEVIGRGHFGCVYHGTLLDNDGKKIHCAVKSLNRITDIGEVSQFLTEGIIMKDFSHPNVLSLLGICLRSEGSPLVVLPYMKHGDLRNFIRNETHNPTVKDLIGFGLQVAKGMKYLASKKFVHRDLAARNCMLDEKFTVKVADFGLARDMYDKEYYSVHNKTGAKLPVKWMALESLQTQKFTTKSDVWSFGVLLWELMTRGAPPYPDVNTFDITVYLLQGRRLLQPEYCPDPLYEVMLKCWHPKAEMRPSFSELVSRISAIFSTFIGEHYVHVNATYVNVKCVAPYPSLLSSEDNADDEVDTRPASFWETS

- affinity for c-Met (c-Met [1]): highest
- c-Met degradation degree (c-Met [2]): lowest
B1: huAbF46-H4-A1: affinity-matured humanized anti-c-Met antibody of L3-1 origin (CDR-L3 SEQ ID NO: 13) (antibody)
heavy: EVQLVESGGGLVQPGGSLRLSCAASGFTFTDYYMSWVRQAPGKGLEWLGFIRNKANGYTTEYSASVKGRFTISRDNSKNTLYLQMNSLRAEDTAVYYCARDNWFAYWGQGTLVTVSSASTKGPSVFPLAPSSKSTSGGTAALGCLVKDYFPEPVTVSWNSGALTSGVHTFPAVLQSSGLYSLSSVVTVPSSSLGTQTYICNVNHKPSNTKVDKKVEPKSCDCH[human IgG1 Fc not given here]
light: DIQMTQSPSSLSASVGDRVTITCKSSQSLLASGNQNNYLAWHQQKPGKAPKMLIIWASTRVSGVPSRFSGSGSGTDFTLTISSLQPEDFATYYCQQSYSRPYTFGQGTKVEIKRTVAAPSVFIFPPSDEQLKSGTASVVCLLNNFYPREAKVQWKVDNALQSGNSQESVTEQDSKDSTYSLSSTLTLSKADYEKHKVYACEVTHQGLSSPVTKSFNRGEC
- Akt phosphorylation degree (Akt phosphorylation): lowest
